The other results are listed elsewhere or left out. Most values come without repeats; read them as rough.
Assays:
Assay in all cases: cell count relative to DMSO control; melanoma cells; higher = more viable cells
Conditions in all cases: library dose: low library concentration; 72 h
[1] = test system: COLO792
[2] = test system: COLO800
[3] = test system: COLO829
[4] = test system: G361
[5] = test system: IPC-298
[6] = test system: IST-MEL1
[7] = test system: LB2518-MEL
[8] = test system: LOXIMVI
[9] = test system: MEL-HO
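Note: cell number obtained by counting DAPI-stained nuclei in high-throughput microscope images with image analysis software, screen run in 1,536-well plates.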

| SMILES | cell count [1] [%] | cell count [2] [%] | cell count [3] [%] | cell count [4] [%] | cell count [5] [%] | cell count [6] [%] | cell count [7] [%] | cell count [8] [%] | cell count [9] [%] |
| --- | --- | --- | --- | --- | --- | --- | --- | --- | --- |
| O=c1[nH]nc(Sc2ncc([N+](=O)[O-])s2)n1-c1ccc2c(c1)OCCO2 + OCCn1cc(-c2cnc3nnn(Cc4ccc5ncccc5c4)c3n2)cn1 [PF04217903] (first compound 0.2 µM, partner dose 1 µM) | 98.2 | 98.1 | 102 | 102 | 101 | 95.1 | 96 | 79.7 | 103 |
| C[C@@H]1CCN(C(=O)CC#N)C[C@@H]1N(C)c1ncnc2[nH]ccc12 + CN(NC(=O)CC(=O)NN(C)C(=S)c1ccccc1)C(=S)c1ccccc1 [STA4783] (first compound 1 µM, partner dose 0.006 µM) | 65.2 | 27.9 | 63.7 | 81.6 | 100 | 77.5 | 61.5 | 92 | 78.4 |
| O=c1[nH]nc(Sc2ncc([N+](=O)[O-])s2)n1-c1ccc2c(c1)OCCO2 + O=C(O)C(=O)Nc1sc2c(c1C(=O)O)CCNC2 [TCS401] (first compound 0.2 µM, partner dose 1.66667 µM) | 94.6 | 118 | 71 | 91 | 99.9 | 101 | 100 | 113 | 110 |
| O=c1[nH]nc(Sc2ncc([N+](=O)[O-])s2)n1-c1ccc2c(c1)OCCO2 + Cn1cc(/C=C2\C(=O)Nc3cccnc32)c2ccccc21 [GW441756] (first compound 0.2 µM, partner dose 0.4 µM) | 103 | 119 | 109 | 89 | 92.3 | 98.5 | 110 | 96.5 | 107 |
| CC1(C)NC(=O)N(c2ccc([N+](=O)[O-])c(C(F)(F)F)c2)C1=O [nilutamide] + NCC(=O)Nc1ccc(-n2nc(C(F)(F)F)cc2-c2ccc3c(ccc4ccccc43)c2)cc1 [OSU03012] (first compound 1 µM, partner dose 1 µM) | 101 | 102 | 85.4 | 111 | 80.7 | 96.6 | 116 | 86.2 | 94 |
| O=c1[nH]nc(Sc2ncc([N+](=O)[O-])s2)n1-c1ccc2c(c1)OCCO2 + CCCCCCCCCCCC1=C(O)C(=O)C=C(O)C1=O [Embelin] (first compound 0.2 µM, partner dose 1.2 µM) | 102 | 108 | 111 | 102 | 102 | 105 | 94.8 | 88 | 97.2 |
| COc1cc(Nc2ncc(F)c(Nc3ccc4c(n3)NC(=O)C(C)(C)O4)n2)cc(OC)c1OC [Tamatinib] + Cn1cncc1[C@@](N)(c1ccc(Cl)cc1)c1ccc2c(c1)c(-c1cccc(Cl)c1)cc(=O)n2C [tipifarnib] (first compound 0.4 µM, partner dose 0.01 µM) | 49.3 | 128 | 57 | 81 | 70.2 | 85.9 | 56.6 | 100 | 85.1 |
| O=c1[nH]nc(Sc2ncc([N+](=O)[O-])s2)n1-c1ccc2c(c1)OCCO2 + Cc1ccc(NC(=O)c2cccc(N(C)C)c2)cc1NC(=O)c1ccc(O)cc1 [ZM336372] (first compound 0.2 µM, partner dose 2 µM) | 102 | 145 | 116 | 94.4 | 89.4 | 99 | 85.5 | 87.4 | 87.6 |
| O=c1[nH]nc(Sc2ncc([N+](=O)[O-])s2)n1-c1ccc2c(c1)OCCO2 + COc1cc(N2CCC(N3CCN(C)CC3)CC2)ccc1Nc1ncc(Cl)c(Nc2ccccc2S(=O)(=O)C(C)C)n1 [NVP-TAE684] (first compound 0.2 µM, partner dose 0.08 µM) | 107 | 65.6 | 87.7 | 100 | 114 | 109 | 95 | 93.8 | 97 |
| C[C@@H]1CCN(C(=O)CC#N)C[C@@H]1N(C)c1ncnc2[nH]ccc12 + CN(C)S(=O)(=O)c1ccc2c(c1)/C(=C/c1cc3c([nH]1)CCCC3)C(=O)N2 [SU6656] (first compound 1 µM, partner dose 0.4 µM) | 80.5 | 147 | 71 | 83.7 | 100 | 93.2 | 83.1 | 91.8 | 91.8 |
| O=C(Nc1cccc(Cl)c1)Nc1ncc(CCNc2ncnc3ccsc23)s1 + Cn1cncc1[C@@](N)(c1ccc(Cl)cc1)c1ccc2c(c1)c(-c1cccc(Cl)c1)cc(=O)n2C [tipifarnib] (first compound 0.0008 µM, partner dose 0.01 µM) | 83.5 | 105 | 94.2 | 88.4 | 99.4 | 87.6 | 72.4 | 77.8 | 98.9 |
| C[C@@H]1CCN(C(=O)CC#N)C[C@@H]1N(C)c1ncnc2[nH]ccc12 + COc1cc2c(Oc3ccc4[nH]c(C)cc4c3F)ncnc2cc1OCCCN1CCCC1 [cediranib] (first compound 1 µM, partner dose 0.4 µM) | 82.5 | 90.8 | 119 | 93.1 | 94.9 | 113 | 101 | 73.1 | 87.1 |
| CC1(C)NC(=O)N(c2ccc([N+](=O)[O-])c(C(F)(F)F)c2)C1=O [nilutamide] + CC(C)(C)c1cnc(CSc2cnc(NC(=O)C3CCNCC3)s2)o1 [SNS-032] (first compound 1 µM, partner dose 0.01 µM) | 94.1 | 106 | 136 | 92.8 | 106 | 103 | 98.6 | 78 | 102 |
| COc1cc(Nc2ncc(F)c(Nc3ccc4c(n3)NC(=O)C(C)(C)O4)n2)cc(OC)c1OC [Tamatinib] + OCCn1cc(-c2cnc3nnn(Cc4ccc5ncccc5c4)c3n2)cn1 [PF04217903] (first compound 0.4 µM, partner dose 1 µM) | 58.8 | 131 | 93.8 | 92.3 | 80 | 97.8 | 85.1 | 50.8 | 95.4 |
| COc1cc(Nc2ncc(F)c(Nc3ccc4c(n3)NC(=O)C(C)(C)O4)n2)cc(OC)c1OC [Tamatinib] + C[C@@H]1CCN(C(=O)CC#N)C[C@@H]1N(C)c1ncnc2[nH]ccc12 [CP690550] (first compound 0.4 µM, partner dose 1 µM) | 55.7 | 94 | 87.7 | 91.7 | 86.7 | 88.4 | 70.8 | 108 | 85.5 |
| Cn1cncc1[C@@](N)(c1ccc(Cl)cc1)c1ccc2c(c1)c(-c1cccc(Cl)c1)cc(=O)n2C [tipifarnib] + O=C(O)c1ccc(-c2c[nH]c3ncc(-c4ccccc4)cc23)cc1C1CCCC1 [GSK650394] (first compound 0.01 µM, partner dose 0.16 µM) | 93.8 | 113 | 95.3 | 93.6 | 94.4 | 94.5 | 77.6 | 141 | 92.2 |
| O=c1[nH]nc(Sc2ncc([N+](=O)[O-])s2)n1-c1ccc2c(c1)OCCO2 + COc1ccc(-c2ccc3c(N4CCOCC4)nc(N4C[C@@H](C)O[C@@H](C)C4)nc3n2)cc1CO [KU0063794] (first compound 0.2 µM, partner dose 0.02 µM) | 107 | 76.7 | 95.1 | 103 | 101 | 105 | 98.9 | 120 | 103 |
| CC1(C)NC(=O)N(c2ccc([N+](=O)[O-])c(C(F)(F)F)c2)C1=O [nilutamide] + Cc1ccc(NC(=O)c2cccc(N(C)C)c2)cc1NC(=O)c1ccc(O)cc1 [ZM336372] (first compound 1 µM, partner dose 2 µM) | 116 | 146 | 103 | 101 | 90.6 | 97.5 | 88 | 159 | 88.3 |
| O=c1[nH]nc(Sc2ncc([N+](=O)[O-])s2)n1-c1ccc2c(c1)OCCO2 + COC(=O)c1sccc1S(=O)(=O)Nc1ccc(Nc2ccccc2)cc1OC [GSK0660] (first compound 0.2 µM, partner dose 1 µM) | 109 | 84.6 | 89.6 | 91.9 | 103 | 103 | 130 | 97.3 | 103 |
| COc1cc(Nc2ncc(F)c(Nc3ccc4c(n3)NC(=O)C(C)(C)O4)n2)cc(OC)c1OC [Tamatinib] + NC(=O)Nc1cc(-c2cccc(F)c2)sc1C(=O)N[C@H]1CCCNC1 [AZD7762] (first compound 0.4 µM, partner dose 0.02 µM) | 64.6 | 111 | 101 | 93.8 | 91.6 | 101 | 92.9 | 96.9 | 93.1 |
| COc1cc(Nc2ncc(F)c(Nc3ccc4c(n3)NC(=O)C(C)(C)O4)n2)cc(OC)c1OC [Tamatinib] + CO[C@@H]1[C@H](N(C)C(=O)c2ccccc2)C[C@H]2O[C@]1(C)n1c3ccccc3c3c4c(c5c6ccccc6n2c5c31)C(=O)NC4 [Midostaurin] (first compound 0.4 µM, partner dose 0.08 µM) | 50.6 | 80.4 | 96.9 | 73.8 | 72.4 | 89.7 | 76.9 | 73.9 | 73.1 |
| O=c1[nH]nc(Sc2ncc([N+](=O)[O-])s2)n1-c1ccc2c(c1)OCCO2 + c1cc(-c2cnn3cc(-c4ccc(OCCN5CCCCC5)cc4)cnc23)ccn1 [Dorsomorphin] (first compound 0.2 µM, partner dose 0.4 µM) | 91.5 | 129 | 109 | 97 | 99.9 | 110 | 110 | 99.9 | 102 |
| O=c1[nH]nc(Sc2ncc([N+](=O)[O-])s2)n1-c1ccc2c(c1)OCCO2 + COc1cc(Nc2ncc(F)c(Nc3ccc4c(n3)NC(=O)C(C)(C)O4)n2)cc(OC)c1OC [Tamatinib] (first compound 0.2 µM, partner dose 0.4 µM) | 59.5 | 48.5 | 95.9 | 103 | 80 | 99.1 | 90.9 | 48.3 | 93.8 |
